This is an account of results in ChEMBL document CHEMBL4888484, “Replenishing the malaria drug discovery pipeline: Screening and hit evaluation of the MMV Hit Generation Library 1 (HGL1) against asexual blood stage Plasmodium falciparum ,using a nano luciferase reporter read-out” (2022).

In all, about 150,000 compounds went through this assay and about 540 (0.36%) showed an effect of 50% or more. The list shows a part of the results.

This test concerns Plasmodium falciparum. Description: Primary screen in NF54 nanoGlo assay, in single point, at 2uM, 72h; a lower Z score goes with more inhibition. As to conditions: timepoint 72 hour. It is filed as functional, Erythrocyte.
Regarding `Cc1cnc(N2CCN([C@H]3CCS(=O)(=O)C3)CC2)nc1`, the “% Inhibition” value was 3% and the Z score is recorded as -0.39.

As to `COCC[C@H]1COCCN1C(=O)Cc1ccoc1`, the “% Inhibition” value is on record as -12% and the Z score came to 2.26.

With `O=C(NCc1ccc(F)cc1)c1n[nH]c2c1CN(C(=O)c1ccoc1)CC2`, the “% Inhibition” value was 10% and the Z score was -1.41.

`O=C(Nc1ccc2c(c1)OCO2)c1ccc(=O)n(Cc2ccc(Cl)cc2)c1`: the “% Inhibition” value was -15% and the Z score was determined as 1.88.

Take `COCCC1(CNC(=O)Nc2ccccc2N(C)C)CC1`: the “% Inhibition” value turned out to be 27% and the Z score is listed as -3.03.

In the case of `CC(C)Cc1cc(C(=O)NC[C@H]2CN(C)C(=O)CO2)nc(N)n1`, the “% Inhibition” value is -2% and the Z score came out at 0.45.

Consider `O=C(CN1CCC[C@H](O)C1)N1CCN(Cc2ccccc2)CC1`, for which the “% Inhibition” value is reported as -6% and the Z score came to 0.91.

For `COc1c[nH]c(C(=O)NC2CCCC2)cc1=O`, the “% Inhibition” value is listed as -5% and the Z score came out at 0.85.

Turning to `OCCOc1ccccc1CN1CC[C@H](c2ccc(F)cc2)[C@@H](O)C1`, the “% Inhibition” value turned out to be 5% and the Z score is -0.92.

`COc1cc(OC)cc(C(=O)N2CC[C@]3(OC)CC[C@H](OC)C[C@H]23)c1`: the “% Inhibition” value was -13% and the Z score stood at 1.72.

In the case of `CCOC(=O)N1CCC(NC(=O)c2cc3ccccc3o2)CC1`, the “% Inhibition” value was -9% and the Z score amounted to 1.59.

Consider `CCC[C@H]1CN(C(=O)c2cnc(O)cn2)C[C@@H]1N`, for which the “% Inhibition” value was -7% and the Z score was 1.28.

As to `O=C([C@@H]1Cc2[nH]cnc2CN1Cc1ccc(Cl)cc1)N1CCOCC1`, the “% Inhibition” value was 4% and the Z score is on record as -0.64.

Take `C[C@H]1CS(=O)(=O)CCN1C(=O)c1csc(-c2c(F)cccc2F)n1`: the “% Inhibition” value is reported as -12% and the Z score was determined as 1.44.

On to `O=C(NCc1nc(C2CC2)no1)Nc1ccccc1C(F)(F)F`, for which the “% Inhibition” value is reported as -9% and the Z score turned out to be 1.16.

Take `O=C(O)C1CC2CCCCC2N1Cc1ccc(Cl)c(Cl)c1` (stereo not drawn): the “% Inhibition” value is recorded as -8% and the Z score stood at 1.17.

Turning to `C=CCN1CCC[C@H]1C(=O)N(Cc1cnn(C)c1)C(C)C`, the “% Inhibition” value is -10% and the Z score came to 1.39.

Turning to `O=C(Nc1cnn(C[C@H]2COc3ccccc3O2)c1)c1ccncc1`, the “% Inhibition” value was found to be 25% and the Z score is -3.2.

For the compound `COc1ccc(CC(=O)Nc2cc(C3CC3)nn2-c2nc(C)cc(=O)[nH]2)cc1`, the “% Inhibition” value turned out to be 0% and the Z score is given as -0.01.

`Cc1nc(CN(C)Cc2ccc([C@@H]3CCCCO3)s2)cs1`: the “% Inhibition” value was -26% and the Z score is 2.33.

In the case of `CC(=O)N1CCC(CC(=O)N2CC(n3ccnc3C(C)C)C2)CC1`, the “% Inhibition” value amounted to 6% and the Z score was -1.1.

As for `CCCc1ccc(CN(C)Cc2n[nH]c(=O)[nH]2)s1`, the “% Inhibition” value is listed as -12% and the Z score is on record as 1.78.

Turning to `O=C(N[C@H]1CCCN(C2CCCC2)C1)N1CCN(c2ccccc2O)CC1`, the “% Inhibition” value is given as 5% and the Z score was -0.66.

`CC(C)(C)OC(=O)[C@H](NCC(O)C(F)(F)F)c1ccccc1` (stereo partly drawn): the “% Inhibition” value is given as 3% and the Z score is -0.67.

Consider `Cc1cccc(NC(=O)Nc2c(-c3ccncc3)[nH]c3c(Cl)cccc23)c1`, for which the “% Inhibition” value is reported as -1% and the Z score was 0.23.

In the case of `C/C=C/[C@@H]1OC(c2ccccc2)(c2ccccc2)c2ccccc2N1C(C)=O`, the “% Inhibition” value is reported as 4% and the Z score is -0.63.

Consider `Cc1n[nH]c(C2CC2)c1C(=O)NCC1(CN2CCOCC2)CC1`, for which the “% Inhibition” value is listed as -8% and the Z score is recorded as 1.62.

Take `CCN(C[C@H]1CCCO1)C(=O)c1cc(Cn2c(C)nc3ccccc32)[nH]n1`: the “% Inhibition” value is on record as -11% and the Z score came out at 1.98.

`COc1ccc(C)cc1S(=O)(=O)N1C[C@H]2CC[C@@H](C1)N(C)C2`: the “% Inhibition” value is listed as -13% and the Z score was 1.28.

`Cc1cc(C)c(-n2cccn2)c(CN2CCN(CC(=O)O)CC2)c1`: the “% Inhibition” value is -22% and the Z score turned out to be 2.

Consider `CCc1ccc(Cn2cnc(-c3ccccc3)c2-c2nccn2CC)nc1`, for which the “% Inhibition” value is recorded as -9% and the Z score is 1.51.

On to `C[C@H](NS(=O)(=O)c1ccco1)c1cnn(CC2CCC2)c1`, for which the “% Inhibition” value is reported as -5% and the Z score is 0.85.

For `CCN(Cc1cn2cc(C)ccc2n1)Cc1nc(C)no1`, the “% Inhibition” value is 1% and the Z score is -0.23.

On to `Cc1occc1C(=O)N(Cc1ccccc1)[C@H]1CCS(=O)(=O)C1`, for which the “% Inhibition” value is on record as -4% and the Z score was 0.39.

`O=C(C[C@H]1CCS(=O)(=O)C1)N1CCN(c2cccc(C(F)(F)F)c2)CC1`: the “% Inhibition” value was determined as 2% and the Z score was -0.17.

In the case of `CC(C1CC1)N(C)S(=O)(=O)NCC1CCN(C2CC2)C1` (stereo not drawn), the “% Inhibition” value was 3% and the Z score was -0.43.

Take `C[C@H](O)C(=O)N1CCC(CNC(=O)c2cncs2)CC1`: the “% Inhibition” value is given as -7% and the Z score is recorded as 1.34.

With `COc1cc(Cc2noc([C@@H](C)c3cn(C)c4ccccc34)n2)ccc1S(C)(=O)=O`, the “% Inhibition” value is recorded as 3% and the Z score was -0.58.

As to `Cc1cc(-c2nnn(CC(O)CN3CC(C)OC(C)C3)n2)ccc1F` (stereo not drawn), the “% Inhibition” value is -5% and the Z score is 0.99.

Take `CN1c2ccc(F)cc2N(CCNC(=O)c2cncc(F)c2)S1(=O)=O`: the “% Inhibition” value is 6% and the Z score is -0.77.

`CCn1c([C@H]2CCCN(C(=O)c3cccc(C)n3)C2)nn(CCN(C)C)c1=O`: the “% Inhibition” value is listed as -6% and the Z score came out at 0.81.

On to `O=S(=O)(NC[C@H](OCCO)c1ccsc1)c1ccc(Cl)s1`, for which the “% Inhibition” value is given as -8% and the Z score is given as 0.91.

For the compound `CC[C@H](CO)NC(=O)Cc1c(Cl)cccc1Cl`, the “% Inhibition” value is recorded as -10% and the Z score is reported as 0.87.

Regarding `Cc1nccn1Cc1nc(C(C)C)no1`, the “% Inhibition” value is recorded as -21% and the Z score is listed as 1.82.

Regarding `COc1ccc(CN2CCN(C)CC2)cc1NCc1cccnc1`, the “% Inhibition” value is on record as -18% and the Z score was found to be 1.68.

Consider `O=C(NC(c1ccccc1)C(F)F)N1CC2COCC(C1)O2` (stereo not drawn), for which the “% Inhibition” value is -12% and the Z score came to 0.99.

In the case of `Cc1nn(C)c(N2CCC2)c1NC(=O)CC1CC2CCC1C2` (stereo not drawn), the “% Inhibition” value was -14% and the Z score stood at 1.81.

As for `OC1(c2cccc(C(F)(F)F)c2)CCN(c2cnccn2)CC1`, the “% Inhibition” value is 8% and the Z score is given as -1.11.

`O=C(Nc1ccccc1)N(Cc1ccc(Br)o1)c1ccccn1`: the “% Inhibition” value is -1% and the Z score is 0.2.

In the case of `Cn1ccc(C2NC(=O)N(C(c3ccc(F)cc3)C3CC3)C2=O)n1` (stereo not drawn), the “% Inhibition” value came out at 5% and the Z score is given as -0.72.

For the compound `COc1ccc2c(c1)C(C(=O)N[C@@H](C#N)C(C)C)CC2` (stereo partly drawn), the “% Inhibition” value was 7% and the Z score was -1.31.

With `CNS(=O)(=O)CCNS(=O)(=O)c1cc(-c2cc(C(F)(F)F)on2)oc1C`, the “% Inhibition” value is recorded as -10% and the Z score is recorded as 1.02.

Consider `Cc1cccc(NC(=O)Cc2nc(C)c(-c3ccccc3)s2)c1`, for which the “% Inhibition” value is -2% and the Z score is recorded as 0.4.

Consider `O=C(NCc1ccc(Br)cc1)C1CCN(c2nc3nc[nH]c(=O)c3s2)CC1`, for which the “% Inhibition” value is given as -14% and the Z score is recorded as 2.16.

As a reminder, the % Inhibition is the relative decrease from the control value, in per cent.
